Measured values reported in PMC4336329 (PLoS ONE, 2015).
The campaign covered roughly 310,000 compounds. About 2,200 (0.71%) showed an effect of 50% or more. The effect is printed as a negative number. The list shows a part of the results.

Target: human ether-à-go-go-related gene (hERG) potassium channel (human, UniProt Q12809)
Experiment: primary screen, population patch clamp on CHO cells stably expressing hERG

human ether-à-go-go-related gene (hERG) potassium channel, sequence (Q12809 whole entry, looked up): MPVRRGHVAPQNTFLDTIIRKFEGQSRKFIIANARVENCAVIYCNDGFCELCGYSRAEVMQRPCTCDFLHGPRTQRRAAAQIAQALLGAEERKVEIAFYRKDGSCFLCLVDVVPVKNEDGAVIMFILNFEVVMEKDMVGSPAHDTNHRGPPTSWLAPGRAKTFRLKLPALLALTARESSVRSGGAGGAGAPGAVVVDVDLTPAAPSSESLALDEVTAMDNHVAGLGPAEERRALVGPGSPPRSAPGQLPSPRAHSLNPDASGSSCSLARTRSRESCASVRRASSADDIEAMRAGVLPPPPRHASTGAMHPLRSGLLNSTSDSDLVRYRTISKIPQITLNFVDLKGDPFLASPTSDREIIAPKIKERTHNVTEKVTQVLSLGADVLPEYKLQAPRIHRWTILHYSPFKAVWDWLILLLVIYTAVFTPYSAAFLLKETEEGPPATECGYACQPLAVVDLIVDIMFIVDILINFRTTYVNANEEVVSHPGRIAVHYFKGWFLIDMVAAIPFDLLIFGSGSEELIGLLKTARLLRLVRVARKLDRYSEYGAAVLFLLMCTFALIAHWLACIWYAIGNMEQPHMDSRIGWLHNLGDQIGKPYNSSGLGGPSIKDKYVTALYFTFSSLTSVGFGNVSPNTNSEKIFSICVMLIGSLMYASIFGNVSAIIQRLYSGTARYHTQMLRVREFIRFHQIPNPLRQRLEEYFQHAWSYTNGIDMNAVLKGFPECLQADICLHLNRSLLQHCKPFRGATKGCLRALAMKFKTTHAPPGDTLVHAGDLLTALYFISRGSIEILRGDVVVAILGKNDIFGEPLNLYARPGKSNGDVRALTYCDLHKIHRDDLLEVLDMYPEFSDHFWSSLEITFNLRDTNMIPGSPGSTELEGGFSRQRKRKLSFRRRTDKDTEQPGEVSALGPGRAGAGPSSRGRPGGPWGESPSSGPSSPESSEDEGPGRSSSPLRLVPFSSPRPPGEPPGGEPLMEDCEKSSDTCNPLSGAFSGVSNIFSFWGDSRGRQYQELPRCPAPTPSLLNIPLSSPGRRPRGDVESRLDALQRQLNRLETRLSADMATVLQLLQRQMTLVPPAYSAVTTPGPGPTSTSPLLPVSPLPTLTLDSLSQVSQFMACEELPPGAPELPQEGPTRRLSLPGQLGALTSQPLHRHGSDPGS

Compound | hERG current change (%, negative = inhibition) at 1uM
O=C1c2ccccc2NC2CCCCC12 (stereo not shown) | 12.7%
CC(C)(C)C1=C(C#N)C(c2cc3c(cc2Br)OCO3)C(C#N)=C(N)O1 (stereo not shown) | 8.25%
CCN(CCO)C(=O)C12CCC(C)(C(=O)C1)C2(C)C (stereo not shown) | -2.44%
O=C(Nc1cccc(Cl)c1)c1ccc(NC2=NC3CS(=O)(=O)CC3S2)cc1 (stereo not shown) | -1.79%
Cc1ccc(C)c(N2CCN(C3CCCC(C)C3)CC2)c1 (stereo not shown) | 2.86%
COCCCNCCOCCOc1c(OC)cccc1OC | 14.9%
CC(NC(=O)c1ccco1)C(=O)O (stereo not shown) | 9.01%
CC(C)NS(=O)(=O)c1ccc(NC(=O)C(C)OC(=O)CCC2CCCC2)cc1 (stereo not shown) | 12.2%
COc1cc(NC(=O)CN(c2ccc(C)cc2)S(=O)(=O)c2c(C)nn(C)c2C)cc(OC)c1 | 8.32%
Cc1oc2c(c(C)cc3oc(=O)c(CC(=O)NCCCN4CCCC4=O)c(C)c32)c1C | 8.77%
CC(=O)N1c2ccc(S(=O)(=O)NCC3CCC(C(=O)N4CCCCC4)CC3)cc2CC1C (stereo not shown) | 14.1%
COc1ccccc1NC(=O)CC(=O)CSc1nnc(-c2ccc(C)cc2)n1C | -3.75%
O=C(COc1cc2oc(=O)cc(-c3ccccc3)c2cc1Cl)NCc1ccccn1 | 1.89%
CCCCNC(=O)[C@@](CC)(ONc1ccccc1C(F)(F)F)c1cccc2ccccc12 | 19.1%
COC(=O)CN1C(=S)N(c2ccc(Cl)cc2)C(=O)C1CC(=O)Nc1ccc(Cl)cc1 (stereo not shown) | 10.7%
CCOC(=O)C1=NN(c2cccc(C)c2)C2(S1)SC(C(C)=O)=C(C)N2c1ccccc1 (stereo not shown) | 13%
CCOC(=O)c1ccc(N=C(c2ccccc2)c2c(O)n(C)c(=O)n(C)c2=O)cc1 | 10.4%
CN(C)c1ccc(/C=N/NC(=O)c2ccc(Cn3cc(Br)cn3)o2)cc1 | -1.08%
Cc1cccc(CCNC(=O)CNS(=O)(=O)c2ccc3nc(C)sc3c2)c1 | 16.5%
CC(=O)c1sc(Nc2nc(C)cc(C)n2)nc1C | -0.917%
O=C(CCNS(=O)(=O)c1ccc(Cl)cc1)NCc1cccs1 | 11.3%
Cc1cccc2nc(CSc3nc4[nH]ncc4c(=O)n3-c3ccccc3Cl)cc(=O)n12 | 10.6%

Compound | hERG current change (%, negative = inhibition) at 1uM
CN1CCN(c2ccccc2NC(=O)c2ccc([N+](=O)[O-])cc2Cl)CC1 | 0.769%
Cc1nn(CCC#N)c(N)c1C1(O)C(=O)Nc2c(Cl)cc(Cl)cc21 (stereo not shown) | 8.12%
CN1CCN(NC(=O)c2ccc(Cl)c([N+](=O)[O-])c2)CC1 | 10.8%
O=C1NCCCC1C(=O)N/N=C/c1cc([N+](=O)[O-])ccc1O (stereo not shown) | 5.34%
CCOCCCNC(=O)/C(C#N)=C/c1cc(C)c(O)c(C)c1 | 14.1%
Cc1cc(=O)oc2c(CN3CCCCC3)c(O)c(Cl)cc12 | 2.8%
Cc1cc(C)n2cnnc2n1 | 30.1%
O=C(CCC1CCCC1)NCCCN1CCOCC1 | 13%
COC(=O)C1=C(c2cccc(OC)c2OC)C[C@@H]2CC[C@H]1N2C(=O)NC(C)C | 12.9%
CC(C)(Oc1ccc(Cl)cc1)C(=O)Nc1ccc2oc(=O)ccc2c1 | -10%
CCCc1nnc(NC(=O)CCS(=O)(=O)c2ccccc2)s1 | -13.8%
O=C(C[n+]1cc(Br)cc2ccccc21)c1ccc(Cl)cc1.[Br-] | -11.3%
O=C(Cn1nc(-c2ccc(Cl)cc2)ccc1=O)N1CCN(c2ccccc2)CC1 | -0.114%
O=C(CN1C2CCCC1CC(NC(=O)c1ccccc1)C2)NC1CC1 (stereo not shown) | 15%
CS(=O)(=O)c1ccc(-c2cccc(NC(=O)c3ccco3)c2)nn1 | 17.9%
CC12CCC(C(=O)Nc3ccccc3)(C/C1=N\O)C2(C)C (stereo not shown) | 10.4%
C[C@]12CC[C@@H]3c4ccc(O)cc4CC[C@H]3[C@@H]1CC[C@@H]2OC(=O)CCC(=O)O | 15.6%
Cc1ccc(CN2CCCC(C(=O)N3CCCC3)C2)cc1.O=C(O)C(=O)O (stereo not shown) | 5.11%
CCSc1nnc([C@H](Cc2ccccc2)NC(=O)OC(C)(C)C)o1 | 5.6%
COc1ccc(OC)c(S(=O)(=O)Nc2cccnc2)c1 | 11.7%
O=C(c1ccc(F)cc1)c1cn(Cc2ccc(F)cc2)c2cc3c(cc2c1=O)OCCO3 | 8.34%
